# Data: PubChem BioAssay AID2100 (National Center for Advancing Translational Sciences (NCATS), 2009)
# Among all 300,000 compounds or so, about 1,200 (0.4%) were called active. The shares of active, inactive and inconclusive entries below differ from those in the screen. Calls come from the whole dose curve; as a rule, active = well fitted inhibition curve with a large enough effect; inconclusive = small, poorly fitted or top-dose-only effect, or another doubt; inactive = no such curve, though single readings can be large or run the other way. Potencies of inconclusive entries are doubtful fits and often do not repeat.
# Molecular target: Lysosomal alpha-glucosidase (Homo sapiens) (UniProt P10253)
# Assay: qHTS Assay for Inhibitors and Activators of Human alpha-Glucosidase Cleavage of Glycogen
# Conditions: recombinant GAA, glycogen substrate, Amplex Red glucose oxidase fluorescence; series mostly up to 76.4 µM
# Summary of the method: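 qHTS, 1536-well; enzyme 4 nM final; cpd up to 77 uM; substrate bovine liver glycogen 30 ug; 50 mM citrate/phosphate pH 5.0, 0.01% Tween-20; 37 C, 40 min; Amplex Red detection 45 min RT; Hill fit → AC50.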
# Potency is the fitted concentration of half-maximal effect.
row,SMILES,Potency
1,O=P(Oc1ccccc1)(Oc1ccccc1)c1ccccc1,inactive
2,Cc1ccc2c(c1)=C/C(=C\c1c(O)[nH]c(=S)[nH]c1=O)C(=O)N=2,"inconclusive: 19.8 µM [inhibitor, partial curve]"
3,O=c1[nH]c(=O)n(-c2cccc3ccccc23)c(O)c1/C=N/N1CCCCCC1,"inconclusive: 3.98 µM [inhibitor, full curve]"
4,Cc1cc(C)nc(N/N=C/C2=C(O)CC(c3ccccc3)CC2=O)n1 (stereo not drawn),"inconclusive: 20 µM [inhibitor, partial curve]"
5,COC(=O)c1ccc(C(c2c(C)[nH][nH]c2=O)c2c(C)[nH][nH]c2=O)cc1,"inconclusive: 31.6 µM [inhibitor, single point]"
6,CC1(O)C[C@]2(C)N(O)C3CCCC[C@@H]3N2O1 (stereo partly drawn),"inconclusive: 22.2 µM [inhibitor, single point]"
7,O=C(N=Nc1c(O)[nH]c(=O)[nH]c1=O)C1COc2cc3ccccc3cc2O1 (stereo not drawn),"inconclusive: 44.7 µM [inhibitor, single point]"
8,N#CC(c1ccc(Cl)nn1)c1c(F)cccc1Cl (stereo not drawn),"inconclusive: 56.2 µM [inhibitor, partial curve]"
9,O=C(O)Cn1cc(/C=C2\C(=O)NC(=O)N(c3ccc(F)cc3)C2=O)c2ccccc21,inactive
10,CC(C)(C)c1ccc(O)c(N=Cc2c(O)ccc3ccccc23)c1,"inconclusive: 28.2 µM [inhibitor, partial curve]"
11,Nc1ccccc1C(=O)c1ccccc1,"inconclusive: 17.8 µM [inhibitor, partial curve, poor fit]"
12,C/C(=N\Nc1ccccc1)c1c(O)n(C)c(=O)n(C)c1=O,"inconclusive: 22.4 µM [inhibitor, partial curve]"
13,CC1CC2(O)c3no[n+]([O-])c3CCC2N1O (stereo not drawn),"inconclusive: 19.8 µM [inhibitor, partial curve]"
14,Cc1ccc(-n2c(O)c(/C=N/Nc3ccccc3)c(=O)[nH]c2=O)cc1C,"inconclusive: 15.8 µM [inhibitor, partial curve]"
15,Cn1c(O)c(/C=N/Nc2ccccc2)c(=O)n(C)c1=O,"inconclusive: 5.01 µM [inhibitor, full curve]"
16,CC(C)c1ccc(O)c(CN2CCN(c3ccccc3)CC2)c1,inactive
17,CN(C)[C@@H]1C(=O)C(C(N)=O)=C(O)[C@@]2(O)C(=O)C3=C(O)c4c(O)ccc(Cl)c4[C@@](C)(O)[C@H]3C[C@@H]12,"inconclusive: 15.8 µM [inhibitor, partial curve]"
18,COc1cc(CNc2ccc3[nH]c(=O)[nH]c3c2)ccc1OCc1ccccc1C,"inconclusive: 50.1 µM [inhibitor, single point]"
19,CCOP(=O)(OCC)Oc1cc(C)c(N(C)C)c(C)c1,"inconclusive: 50.1 µM [inhibitor, single point]"
20,CCOc1ccc(N2C(=O)/C(=C/c3ccco3)C(=O)NC2=S)cc1,"inconclusive: 44.7 µM [inhibitor, single point]"
21,COc1ccc(CCNc2oc(-c3ccc(OC)c(OC)c3)nc2P(=O)(OC)OC)cc1OC,"inconclusive: 25.1 µM [inhibitor, single point]"
22,CCOc1ccc(CN(CCc2ccc3c(c2)OCO3)Cc2cc(OC)ccc2O)cc1,"inconclusive: 17.8 µM [inhibitor, partial curve]"

row,SMILES,Potency
1,CN1CCC(=O)N(CCN=[N+]=[N-])CC1,active: 50.1 µM
2,COc1cccc(N2C(=O)/C(=C/c3ccc(C)o3)C(=O)NC2=S)c1,"inconclusive: 50.1 µM [inhibitor, single point]"
3,COc1ccc(NC2(C#N)CCCCC2)cc1,"inconclusive: 19.8 µM [inhibitor, partial curve]"
4,C=CCc1cccc(C=Nc2c[nH]c(=O)[nH]c2=O)c1O,"inconclusive: 22.4 µM [inhibitor, single point]"
5,O=C(Nc1cccc(C(F)(F)F)c1)Oc1ccccc1N1CCOCC1,"inconclusive: 5.62 µM [inhibitor, partial curve]"
6,Cc1cccn2c(NCC3CCCO3)c(C(C)C)nc12 (stereo not drawn),"inconclusive: 39.8 µM [inhibitor, partial curve]"
7,CC(=NCc1ccco1)c1c(O)n(C)c(=O)n(C)c1=O,"inconclusive: 44.3 µM [activator, partial curve, poor fit]"
8,Oc1ccc(/C=N/NP(=S)(c2ccccc2)c2ccccc2)c(O)c1O,active: 15.8 µM
9,COc1ccc(OC)c(-n2c(O)c(C=Nc3c(C)n(C)n(-c4ccccc4)c3=O)c(=O)[nH]c2=S)c1,"inconclusive: 31.6 µM [inhibitor, partial curve]"
10,CN(C)c1ccc(C(O)P(=O)(OC2CCCCC2)OC2CCCCC2)cc1 (stereo not drawn),"inconclusive: 44.7 µM [activator, single point]"
11,CC1CN(c2ccccc2)NC1=O (stereo not drawn),"inconclusive: 31.6 µM [inhibitor, single point]"
12,O=C(NC1C(=O)NNC1c1ccc(Cl)cc1)c1ccc(F)cc1 (stereo not drawn),"inconclusive: 6.31 µM [inhibitor, full curve]"
13,CCC(=NCCc1ccccc1)c1c(O)[nH]c(=O)[nH]c1=O,inactive
14,C=CCN1CCc2cccc3c2[C@H]1Cc1ccc(O)c(O)c1-3,active: 6.31 µM
15,ON1C2CCCCC2N(O)C1c1ccccc1F (stereo not drawn),active: 8.84 µM
16,CC/C(=N\Nc1ccccc1)c1c(O)n(C)c(=O)n(C)c1=O,"inconclusive: 11.1 µM [inhibitor, partial curve]"
17,O=C(Nc1ccc(OC(F)(F)F)cc1)Oc1ccccc1N1CCOCC1,"inconclusive: 8.91 µM [inhibitor, full curve]"
18,CC(=O)c1c(C)n(CCCOC(C)C)c2ccc(O)cc12,"inconclusive: 31.6 µM [inhibitor, partial curve]"
19,OCCCc1ccc(O)c(O)c1,active: 35.5 µM
20,CC1Cc2ccccc2N1Cc1cccc(S(=O)(=O)N(C)C)c1 (stereo not drawn),"inconclusive: 14.1 µM [inhibitor, partial curve]"
21,CC1(C)Cc2c(sc3nc4n(-c5ccccc5)c(=O)c(CCC(=O)O)nn4c(=O)c23)CO1,"inconclusive: 39.8 µM [inhibitor, partial curve]"
